{
  "source": "paper PMC12136788",
  "binders": {"B1": {"name": "19447899_19449338_9892_CDS_ENSG00000127481_ENST00000375254|human|control|control (ssRNA)", "RNA": "GGGAGUUCUACAGUCCGACGAUCACUGACUUGGAGGAGGAAGUACAGGACGGAGUCAUCUUUGAUGCAGAAUUUCUGCCAGUUGAUGGUUCGCUGGGCGGCAAUCUCUGCACAGGCUUUCAGGUGCUCCAUCAGGCUGAUGAGCAACAGAGGAUUGAGCAUCA"}, "B2": {"name": "59577159_59578459_2520_CDS_ENSMUSG00000021557_ENSMUST00000164215|mouse|control|control (ssRNA)", "RNA": "GGGAGUUCUACAGUCCGACGAUCUUUUUGAAGAUGCAUCUGCAGAGUCGAGUACGUGUAUGGAUAGUGAUAGGCGAAAUAGCAGACAUCGUCCUUGUGCGGGAAGUUCACGGUGAAGGUGAUGGUGUAGUAGGACUUGCCCUUCAACAGAGGAUUGAGCAUCA"}, "B3": {"name": "98288980_98289100_1136_CDS_ENSG00000180543_ENST00000322128|human|control|control (ssRNA)", "RNA": "GGGAGUUCUACAGUCCGACGAUCCUUGUCAGACUCAAUGGAGCUGUGGUUUGAAAACCACCCAAAGAAACUACGGUUGUUUUCUGGGUUUCCCUGGCUUAGGGACUGGAGAUCAUGCCCUGGGAGCCACUGGAUUGGAGUAGACAACAGAGGAUUGAGCAUCA"}, "B4": {"name": "chr14:89338683:89338684:+_ENSG00000165533_ENST00000346301|hu_hu|hu_hu_hu_mus_False|38_48 (ssRNA)", "RNA": "GGGAGUUCUACAGUCCGACGAUCGUGGUUGUUGUGGACCAGGGCCAGCCUGAAGCAUUGGUGGGCCAAGUUUGUAUCUCCGAUUCCCACAGCUACAUGUCCCAAGUUGUACCAGACAUCAGCUGCCUCUUCUUCAUUUUCAGCCAACAGAGGAUUGAGCAUCA"}, "B5": {"name": "chr11:29606814:29606815:+_ENSMUSG00000020458_ENSMUST00000102843|mus_mus|FALSE|FALSE (ssRNA)", "RNA": "GGGAGUUCUACAGUCCGACGAUCCACUUUAGUAAGGGUCGCAGGUGACUCUUGUGGAUUAUGAAGGGCUGCACUACAAACUAAAUCCUCUUUGUCUUUACUCCUCACAAUUACUUCUUCCUUAGUGUUUUCUACUAACAUGGCCAACAGAGGAUUGAGCAUCA"}, "B6": {"name": "chr2:178096726:178096727:-_ENSG00000116044_ENST00000397062|hu_hu|FALSE|FALSE (ssRNA)", "RNA": "GGGAGUUCUACAGUCCGACGAUCCAGUUUGGCUUCUGGACUUGGAACCAUGGUAGUCUCAACCAGCUUGUCAUUUUCAAUAUUAAGACACUGUAACUCAGGAAUGGAUAAUAGCUCCUCCCAAACUUGCUCAAUGUCCUGUUGCAACAGAGGAUUGAGCAUCA"}, "B7": {"name": "chr16:45382771:45382772:-_ENSMUSG00000022661_ENSMUST00000163230|mus_mus|mus_mus_mus_hu_True|78_78 (ssRNA)", "RNA": "GGGAGUUCUACAGUCCGACGAUCCUGGGUCAUGUUAUAAGACAAAUGGACAGGGAGAGCAUGCUUUUCAAAAAAUGUGAGCUAUUGUCUAAGACUAACAAUAUUUAUCUAGCUAUAAAAAUAAGUUAAAUGAAUAAGUUAAGACAACAGAGGAUUGAGCAUCA"}, "B8": {"name": "54242455_54242575_5818_CDS_ENSMUSG00000061603_ENSMUST00000095737|mouse|control|control (ssRNA)", "RNA": "GGGAGUUCUACAGUCCGACGAUCGUCGUGCUUGGAUUCAGAAAUCUUUUUCACAUUUGAAGCAAGGUUCGCUGAUGCCUCUGGGAUCUCUGGCUUCUCCUUUUCUCUCUCUGGAGUACUUUCAACAUUGCCAUUUUCCAUGUCCAACAGAGGAUUGAGCAUCA"}, "B9": {"name": "chr10:59412704:59412705:-_ENSMUSG00000020108_ENSMUST00000020308|mus_mus|motif|central (ssRNA)", "RNA": "GGGAGUUCUACAGUCCGACGAUCCUGGCUGCAGCUCCCAGGUGUAAUUUUGUUUCAAGUGUCGAAGAUCCCGAAUGAUCCGGACACCCACCCCAUUCCUACUCUUACAUUCAUGCAGUCUGUAAGAUAGCUGCCUCGAACAGGCAACAGAGGAUUGAGCAUCA"}, "B10": {"name": "chr4:107087291:107087292:+_ENSMUSG00000028614_ENSMUST00000139560|mus_mus|FALSE|FALSE (ssRNA)", "RNA": "GGGAGUUCUACAGUCCGACGAUCUGCUUAGUCGUGUACCUUAAGAUUUCAAUUUUUCUACAUUCCUUUAUAUAGAGUUAACAUCUGUAAAUCGAGACUCUUUUUGGACAAUCAUGCAAAUUUAAUUUGUCCCUGGAAACAAAACAACAGAGGAUUGAGCAUCA"}, "B11": {"name": "chrX:123197699:123197700:+_ENSG00000101972_ENST00000371157|hu_mus|motif|central (ssRNA)", "RNA": "GGGAGUUCUACAGUCCGACGAUCUGUGUGCUUCUCUACAAUAUUUCGGAUCUGGCGCAAUAAGGCAUCCAAAUGCUUUUCGGAUCGUCCAGUGGUGUAUAUCUCCAAAUCAAAGUACUGAGGUAACUGCAACAAAUUGGUCACCAACAGAGGAUUGAGCAUCA"}, "B12": {"name": "chr15:102110757:102110758:+_ENSMUSG00000045665_ENSMUST00000051341|mus_mus|motif|central (ssRNA)", "RNA": "GGGAGUUCUACAGUCCGACGAUCGUAGGGAGCUUGGAGCCAGUCCGCUGCCAGGGCCAGAAAGUAGACUUGAUAGAAGUCGGGUUGAAACUGAAGGAAGGAGGGGUUGCUGCAAGCUCUUCCAGGGGGCCUGGCUCUGCAUCUCAACAGAGGAUUGAGCAUCA"}, "B13": {"name": "chr2:216981417:216981418:+_ENSG00000079246_ENST00000392132|hu_hu|hu_hu_hu_mus_True|1_108 (ssRNA)", "RNA": "GGGAGUUCUACAGUCCGACGAUCCUGAUACUGAUCCUUGCCAGCAAGGGCAUUAUCAGUGCCAUCUGUGCCAUAGAGGACUAACGCAAUCUCAUCUUUGCUCUCCGAAAAUACCUGUCGUUGGACAAACAUAGUCAUCACCUUCAACAGAGGAUUGAGCAUCA"}, "B14": {"name": "25615947_25616067_1297_3pUTR_ENSG00000114062_ENST00000438097|human|control|control (ssRNA)", "RNA": "GGGAGUUCUACAGUCCGACGAUCUCCAUUUCUAGAACCUCAUUCAGUGGUUCAUUAAUAAACUCUUCAAAAGGGAUAAGUGGUUUUCGACAAUCCAGGGUUUUAACACCAAGUUCAGUUUCCAGGGGGUCCACUCGAGGACCUCAACAGAGGAUUGAGCAUCA"}, "B15": {"name": "95310097_95310418_3252_CDS_ENSMUSG00000034088_ENSMUST00000170883|mouse|control|control (ssRNA)", "RNA": "GGGAGUUCUACAGUCCGACGAUCUACUCGAUCCAGUAGCCCCGCCUUAGCCCUGUCCAAAUUUGCUGCAAGGCCAGUGAUGGCGAUGGUGUCUGACUGCAGCUCGGGGGCUGGUACAUGGAUGUUCACCUCAAACUCAUCCAUCAACAGAGGAUUGAGCAUCA"}, "B16": {"name": "66531988_66532108_1953_CDS_ENSMUSG00000025326_ENSMUST00000107537|mouse|control|control (ssRNA)", "RNA": "GGGAGUUCUACAGUCCGACGAUCUUCAAAGGAGAUAAGUGGUUUUCGACAGUCUAGAGUUUUAACGCCAAGUUCGGUUUCUAGUGGAUCCACUCGAGGACCUUUCUUAUUUCUUCUUUCAUCUCCCAGAAGCUCCUGAAGUGUCAACAGAGGAUUGAGCAUCA"}, "B17": {"name": "chr4:148551591:148551592:-_ENSMUSG00000063077_ENSMUST00000060537|mus_hu|mus_mus_mus_hu_False|8_68 (ssRNA)", "RNA": "GGGAGUUCUACAGUCCGACGAUCACCUGACAAAAUUAAAUAUCCCUGUAAAUUAGACAAUAAGCAGCAGGUAACAAAGUCUUUGCUUUGGAAUAUGUGCCAGGAAAAGUCAUCUUGUUUUUAGAUCACACCUUUCAGUUCACACAACAGAGGAUUGAGCAUCA"}, "B18": {"name": "chr13:99559765:99559766:-_ENSMUSG00000041685_ENSMUST00000040340|mus_hu|motif|central (ssRNA)", "RNA": "GGGAGUUCUACAGUCCGACGAUCCUGAACUUCCUUUAUUAAUUCUUGUAAUUUUCUAACAAGAUCCAAGUGACAAUUUGCGGAUUUCUCUGUAGAUGUUUUGAAUACAUCCCAUACUGGUGCAAAUGUUCCAAGUUGUGAAUACAACAGAGGAUUGAGCAUCA"}, "B19": {"name": "chrX:141883135:141883136:-_ENSMUSG00000041688_ENSMUST00000112835|mus_hu|motif|central (ssRNA)", "RNA": "GGGAGUUCUACAGUCCGACGAUCCUAUUAAUCUGGUUUCUAACUAAGACAUCCCAAAACCUCUACCCCCAACCCUUACCGGACACCCCCCACUUCCCUCACCCUCCCUAUACCCCUUAAAACUGAUCUUAAUGAUGCUAUCUGCAACAGAGGAUUGAGCAUCA"}, "B20": {"name": "chr7:17147909:17147910:-_ENSMUSG00000058230_ENSMUST00000075845|mus_hu|motif|central (ssRNA)", "RNA": "GGGAGUUCUACAGUCCGACGAUCCUUACGUUUGGCUGAAUAAAAAACAAUGUACCCAUGAACCAACCGGCUCUUUCUGAUGCGGAAGGAGGAAUGGUAUGAAAGAACAGACAGUUCAAUCCGCUUCUUGUGCAGUCCGAUUGGCAACAGAGGAUUGAGCAUCA"}, "B21": {"name": "247054282_247055120_2089_CDS_ENSG00000153207_ENST00000391829|human|control|control (ssRNA)", "RNA": "GGGAGUUCUACAGUCCGACGAUCAUGAGAGAACCAAAGAACCACUUGUGCAUACUGACAGAUGAGGUGGGAAACCACAAACUUAUUGCUUAAGUCUAUCAGUCCUCUCUCAGUGAUCUCUCGGGCUUCUGAUGCAAAACAGCUCAACAGAGGAUUGAGCAUCA"}, "B22": {"name": "chr1:110121848:110121849:+_ENSG00000065135_ENST00000369851|hu_hu|motif|central (ssRNA)", "RNA": "GGGAGUUCUACAGUCCGACGAUCCCGUUUAAUCACUCCUGCUAGUUCUGGAGUCAUGACUCCUUCUUCAGCACUGCCAGCGGAAACAAAUAAUUGCCGGGCAUCAUCUGCCCUGGCAGCUUCCCCAAAGUCAAUCUUUAGCCGCAACAGAGGAUUGAGCAUCA"}},
  "note": "Some of the results follow.",
  "data": [
    {"target": "T1, UNK ZnF1-3 (human, UniProt Q9C0B0 31-174)", "T1 sequence": "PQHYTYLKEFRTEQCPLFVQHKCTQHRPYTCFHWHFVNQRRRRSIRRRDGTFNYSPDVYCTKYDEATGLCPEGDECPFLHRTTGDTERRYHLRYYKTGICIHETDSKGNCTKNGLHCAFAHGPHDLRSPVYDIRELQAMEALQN", "assay": "nsRBNS (natural sequence RNA bind-n-seq); RBNS binding buffer (assumed for nsRBNS): 25 mM Tris pH 7.5, 150 mM KCl, 3 mM MgCl2, 0.01% Triton X-100, 500 ug/ml BSA, 20 U/ml SUPERase-In, 4 C; UNK is unkempt and MSI1 is Musashi-1; names of the RNAs are library labels; protein concentration not given here; high values mean tight binding", "units": {"binding signal": "enrichment R"}, "values": [
      {"binder": "B1", "binding signal": 1.03},
      {"binder": "B2", "binding signal": 1.2},
      {"binder": "B3", "binding signal": 1.04},
      {"binder": "B4", "binding signal": 0.783},
      {"binder": "B5", "binding signal": 0.763},
      {"binder": "B6", "binding signal": 0.833},
      {"binder": "B7", "binding signal": 2.03},
      {"binder": "B8", "binding signal": 0.413},
      {"binder": "B9", "binding signal": 0.965},
      {"binder": "B10", "binding signal": 0.829},
      {"binder": "B11", "binding signal": 1.15},
      {"binder": "B12", "binding signal": 1.16},
      {"binder": "B13", "binding signal": 0.739},
      {"binder": "B14", "binding signal": 1.32},
      {"binder": "B15", "binding signal": 0.78},
      {"binder": "B16", "binding signal": 0.628},
      {"binder": "B17", "binding signal": 1.15},
      {"binder": "B18", "binding signal": 0.643},
      {"binder": "B19", "binding signal": 1.14},
      {"binder": "B20", "binding signal": 0.986},
      {"binder": "B21", "binding signal": 1.34},
      {"binder": "B22", "binding signal": 0.823}
    ]}
  ]
}
